# Hit rate of the full screen: of about 370,000 compounds, about 150 (0.041%) were called active. The shares of active, inactive and inconclusive entries below differ from those in the screen. The call rests on the fitted dose curve; in most records, active means well fitted inhibition curve with a large enough effect; inconclusive means small, poorly fitted or top-dose-only effect; inactive means flat fitted curve, though single readings scatter. No potency is given beside an inconclusive call; the fits are too rough.
# Target: Beta-lactamase (Escherichia coli (strain K12)) (UniProt P00811)
# Assay: qHTS Inhibitors of AmpC Beta-Lactamase (assay with detergent); further: nearly all actives have a fitted effect of over 25% in size;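 on activity change, negative = inhibition: 0% = no-compound wells and -100% = no-enzyme wells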
# Settings: AmpC hydrolysis of nitrocefin, absorbance 480 nm, 0.01% Triton; activity change, negative = inhibition: at 114 µM (top of the series)
# In short: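 20 mM phosphate pH 7.0 + 0.01% (detergent screen) or 0.0001% Triton X-100; 5.3 nM AmpC reagent; cpd preinc 15 min RT; nitrocefin (800 uM stock) to start; A480 q20 s × 4 min; Activity was normalised to no-enzyme and no-compound control wells.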
# Potency means the concentration at half of the fitted maximal effect; tags describe the fitted curve by direction and shape.
# Chain of UniProt P00811 (P00811 whole entry, looked up): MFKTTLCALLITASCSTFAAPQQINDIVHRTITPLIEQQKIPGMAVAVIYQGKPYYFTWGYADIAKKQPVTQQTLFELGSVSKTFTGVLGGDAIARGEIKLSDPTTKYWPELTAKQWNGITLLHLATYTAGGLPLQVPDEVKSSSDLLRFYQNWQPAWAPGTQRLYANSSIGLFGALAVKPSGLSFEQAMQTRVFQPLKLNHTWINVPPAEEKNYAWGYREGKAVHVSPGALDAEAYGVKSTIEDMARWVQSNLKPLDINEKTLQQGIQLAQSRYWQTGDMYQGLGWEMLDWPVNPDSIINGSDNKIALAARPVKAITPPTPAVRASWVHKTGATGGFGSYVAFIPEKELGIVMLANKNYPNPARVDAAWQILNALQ
SMILES,Potency,"activity change, negative = inhibition"
COc1ccc(CNc2cccc(C)n2)c(O)c1,"inconclusive [inhibitor, full curve, poor fit]",–
O=C1CC(C2CCCO2)C(=O)N1c1ccccc1 (configuration not stated),"inconclusive [inhibitor, single point]",–
COc1ccc(C2/C(=C(/O)c3ccc4c(c3)CC(C)O4)C(=O)C(=O)N2CCN2CCOCC2)cc1 (configuration not stated),–,inactive: 6.41%
Cc1ccc(NC(=O)c2cc3nc(C)cc(C)n3n2)cc1,–,inactive: 5.28%
O=C(NCc1ccccc1)c1ccc2nnsc2c1,"inconclusive [inhibitor, single point]",–
O=C(C(=O)c1cccnc1)c1cccnc1,"inconclusive [inhibitor, single point]",–
O=C(NC1=NCCS1)C1CC(=O)N(c2ccccc2)C1 (configuration not stated),"inconclusive [inhibitor, full curve, poor fit]",–
Cc1ccc(NC(=O)NC2CCN(CC(=O)Nc3nccs3)CC2)cc1,"inconclusive [inhibitor, full curve, poor fit]",–
COC(=O)N1N=C(c2ccc(Br)cc2)CC1(O)C(F)(F)F (configuration not stated),–,inactive: -2.73%
CCOc1ccc(-n2cnc3sc(C)c(C)c3c2=O)cc1,"inconclusive [inhibitor, full curve, poor fit]",–
CSc1ccc(/C=N\Nc2nncn2N)cc1,–,inactive: -0.262%
Cc1ccc(NC(=S)NC2CC3CCC(C2)N3Cc2ccco2)c(C)c1 (configuration not stated),–,inactive: -1.4%
C#Cc1cccc(NC(=O)c2ccc(Cl)cc2Cl)c1,–,inactive: 6.01%
Nc1nccc(-c2ccc(-n3cccc3)cc2)n1,–,inactive: -1.16%
COc1ccccc1CNc1nc2nc3c(c(=O)n2[nH]1)CCC3,"inconclusive [inhibitor, full curve]",–
CC(=O)OC[C@H]1O[C@@H](n2ncc(=O)[nH]c2=O)[C@H](OC(C)=O)[C@@H]1OC(C)=O,"inconclusive [inhibitor, partial curve, poor fit]",–
CSc1ccccc1C(=O)N1CCN(c2ncccn2)CC1,"inconclusive [inhibitor, partial curve, poor fit]",–
Cc1cccc(NC(=O)CN2C(=O)CCS(=O)(=O)c3ccccc32)c1C,"inconclusive [inhibitor, partial curve, poor fit]",–
COc1ccc(COCCN2CCN(S(=O)(=O)c3ccc(C)cc3)CCC2=O)cc1,"inconclusive [inhibitor, full curve, poor fit]",–
CN(CC(=O)Nc1ccccc1Br)C(=O)c1sccc1-c1ccccc1,"inconclusive [inhibitor, full curve, poor fit]",–
CCOc1ccc(CCNC(=O)CSc2nc3ccccc3nc2Cc2ccc(C)cc2)cc1OCC,"inconclusive [inhibitor, single point]",–
O=C1c2ccccc2C(=O)N1Cc1nn2c(-c3ccc(Cl)cc3)nnc2s1,"inconclusive [inhibitor, partial curve, poor fit]",–
C=CCn1c(SCC(C)=O)nc2scc(-c3ccc(C)o3)c2c1=O,–,inactive: -4.32%
COc1c(C)cccc1C(=O)Nc1ccc(Cl)c(-c2nc3cc(C)ccc3o2)c1,–,inactive: 1.6%

SMILES,Potency,"activity change, negative = inhibition"
Cc1nn(CCCC(=O)NCc2ccccc2)c(=O)c2nccn12,"inconclusive [inhibitor, partial curve, poor fit]",–
CCc1cccc(Nc2cc(C)nc3nc(C)nn23)c1,"inconclusive [inhibitor, full curve]",–
CCOC(=O)c1[nH]c2ccccc2c1NC(=S)Nc1cc(C)ccc1C,"inconclusive [inhibitor, full curve, poor fit]",–
CCOc1ccc(OCCSc2nc3ccccc3c(=O)[nH]2)cc1,–,inactive: -6.09%
O=C(O)CSCC(=O)Nc1ccc(C2CCCCC2)cc1,–,inactive: 2.08%
Cc1nc(SCC(=O)N2CC(=O)Nc3ccccc32)nc(C)c1C,–,inactive: -7.91%
COc1ccc(-c2nc(O)c3cnccn23)cc1,"inconclusive [inhibitor, single point]",–
NP(=O)(OCCCc1ccccc1)Oc1ccccc1 (configuration not stated),"inconclusive [inhibitor, full curve, poor fit]",–
N/C(COc1cccc(Cl)c1)=N\NS(=O)(=O)c1ccccc1,–,inactive: 2.11%
COc1cc(OC)cc(C(=O)Nc2cccc(-c3ccc(N4CCOCC4)nn3)c2)c1,"inconclusive [inhibitor, full curve, poor fit]",–
CCc1ccc(NC(=O)CC2C(=O)NCCN2C(=O)c2ccccc2OC)cc1 (configuration not stated),"inconclusive [inhibitor, full curve, poor fit]",–
Cc1nc(SCc2cc(=O)c3cccc(F)c3[nH]2)n[nH]1,–,inactive: 19.2%
CCNC(=S)N(CCc1cccc(C)c1)Cc1cc2cc(OC)c(OC)cc2[nH]c1=O,"inconclusive [inhibitor, partial curve]",–
Cc1nnc(Nc2ccccc2)n(N)c1=O,"inconclusive [inhibitor, single point]",–
COc1cc(CNCCCN2CCOCC2)c(Br)cc1OC(C)C,"inconclusive [inhibitor, partial curve, poor fit]",–
COc1ccc(OC)c(CNc2ccc3c(c2)nc(C)n3C)c1,–,inactive: 3.72%
O=C(OCC(=O)N1CCC(Cc2ccccc2)CC1)c1ccccc1F,–,inactive: 5.78%
CCOc1ccccc1C(=O)NCC(=O)OCc1csc(CC(=O)Nc2ccc(C)cc2)n1,–,inactive: 5.42%
Cc1occc1C(=O)N1CCN(C(=O)C2CCCO2)CC1 (configuration not stated),"inconclusive [inhibitor, full curve, poor fit]",–
COc1ccc(NC(=O)C2CCCN(S(=O)(=O)c3cnc[nH]3)C2)cc1 (configuration not stated),"inconclusive [inhibitor, full curve, poor fit]",–
CCn1c(C(=O)NCc2ccc(C)cc2)cc2sc(Cl)cc21,–,inactive: 21.3%
CCN(CC)S(=O)(=O)c1ccc(Cl)c(NC(=O)COC(=O)/C=C/c2cc(OC)c(OC)c(OC)c2)c1,"inconclusive [inhibitor, full curve, poor fit]",–
Cn1cc(S(=O)(=O)N2CCN(C(=O)c3ccco3)CC2)c(=O)n(C)c1=O,"inconclusive [inhibitor, partial curve, poor fit]",–

# Reference: PubChem BioAssay AID485294 (National Center for Advancing Translational Sciences (NCATS), 2010)
